Measurements taken from the supplement of paper PMC12217912.
The other results are listed elsewhere or left out. The full chains were built here from the parent and the listed change. Inactive controls read about 0.05.

B1: TEV protease; numbered along this chain (parent)
chain: MGESLFKGPRDYNPISSSICHLTNESDGHTTSLYGIGFGPFIITNKHLFRRNNGTLVVQSLHGVFKVKDTTTLQQHLVDGRDMIIIRMPKDFPPFPQKLKFREPQREERICLVTTNFQTKSMSSMVSDTSCTFPSGDGIFWKHWIQTKDGQCGSPLVSTRDGFIVGIHSASNFTNTNNYFTSVPKNFMELLTNQEAQQWVSGWRLNADSVLWGGHKVFMVKPEEPFQPVKEATQL

Variants of: B1
Assay: raw area under fraction-flipped curve 0-4 h after induction (AUC4h, not background-subtracted), DNA-recorder readout of cleavage of the substrate (dimensionless); higher = more cleavage of the substrate by the protease variant
Conditions: temperature: 34 °C; time window: 0-4 h after rhamnose induction
Description: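 In vivo DNA recorder in E. coli TOP10(DE3) ΔrhaA at 34 °C. Each TEVp single-site mutant (parent TEVp 0) is paired with a single-site variant of the 7-mer TEVs (canonical ENLYFQ|S). The substrate sits between flexible linkers in a Bxb1-sfGFP-TEVs-SsrA fusion, so cleavage stabilises Bxb1 and speeds flipping of a recombination array, read by NGS. The value is the raw area under the fraction-flipped curve over 0-4 h after rhamnose induction (AUC4h), with ≥20 reads per time point. It is not background-subtracted; inactive controls average about 0.047.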
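Also: Bxb1 expression induced with 0.2% (w/v) L-rhamnose at OD600 near 0.5, cultures sampled hourly, flipped fraction per protease–substrate barcode pair counted by paired-end Illumina sequencing.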

Variant	area with substrate CNLYFQS	area with substrate GNLYFQS	area with substrate KNLYFQS	area with substrate LNLYFQS	area with substrate MNLYFQS	area with substrate SNLYFQS	area with substrate TNLYFQS	area with substrate WNLYFQS	area with substrate YNLYFQS	area with substrate FNLYFQS	area with substrate HNLYFQS	area with substrate PNLYFQS	area with substrate QNLYFQS	area with substrate VNLYFQS	area with substrate INLYFQS	area with substrate NNLYFQS	area with substrate RNLYFQS
Q74K	0.0734	0.0606	0.068	0.0592	0.0523	0.0698	0.0441	0.0578	0.0528	–	–	–	–	–	–	–	–
L235K	0.0803	0.071	0.0743	–	–	0.0717	0.0355	0.0562	0.0595	0.063	0.07	0.0716	0.0701	0.0763	–	–	–
S4Q	0.0727	–	0.0777	0.056	–	0.0599	0.058	0.0546	0.0674	–	0.0648	0.0612	–	0.0643	0.033	–	–
L99F	0.0592	0.0498	0.0504	0.0717	–	0.0624	0.0575	–	–	–	–	0.0634	0.0911	0.0654	0.0637	0.0607	–
C152N	0.0564	–	–	0.0553	0.0472	0.0564	0.0682	0.0599	0.0622	0.0624	0.0555	0.0109	–	–	–	0.0562	–
N53W	0.057	0.0577	0.0685	0.0622	–	0.0497	0.068	0.051	0.0509	–	0.0666	–	0.0322	–	–	0.0525	–
S17I	0.0579	0.0611	0.0599	0.0618	–	0.065	0.0566	0.0551	–	–	0.0573	0.0756	–	0.0616	–	0.0575	0.0505
K66G	0.0568	–	–	0.0548	0.0605	–	0.0635	0.0544	0.044	–	0.0556	0.058	–	0.0702	0.0549	0.0782	–
K66N	0.0597	–	–	–	–	0.0589	0.0611	0.0491	–	0.0703	0.0355	0.112	–	–	–	–	–
Q105P	0.0486	0.0501	0.0626	0.0546	–	–	0.0437	0.0586	–	0.0491	0.0504	0.0465	–	0.0468	–	0.0487	0.0583
S171A	0.0714	0.0193	–	–	0.0729	–	–	0.0551	–	–	–	–	–	–	–	0.071	–
D91N	0.0614	–	–	–	0.0547	0.0574	–	0.0775	0.089	–	0.047	–	–	–	–	0.0671	–
N186G	0.0588	0.0664	–	–	–	–	–	0.0564	–	–	0.068	–	0.0438	–	–	–	–
S158P	0.0459	0.0442	0.0442	–	–	0.0524	0.0592	0.0461	–	–	0.0504	0.051	–	–	0.0543	0.0561	0.0487
Q146F	0.0676	0.0656	–	–	–	–	0.0697	0.0577	–	–	–	0.0542	–	–	–	–	–
Q146H	0.0543	–	0.0872	0.0711	–	–	0.0895	0.0606	0.0449	–	–	0.0756	–	0.0696	0.0541	–	–
R51Y	0.0717	–	–	0.0716	0.0821	–	0.0784	–	0.0294	–	–	–	–	–	–	0.0568	–
V113I	0.0661	0.0889	0.0635	–	–	0.0707	0.0637	0.0608	–	0.0469	0.0711	0.0546	–	–	0.0632	–	–
